# Test results taken from PubChem BioAssay AID1460 (National Center for Advancing Translational Sciences (NCATS), 2008).
# The whole screen tested about 270,000 compounds, of which about 5,800 (2.1%) were called active. The shares of active, inactive and inconclusive entries below differ from those in the screen. The call rests on the fitted dose curve; in most records, active means well fitted inhibition curve with a large enough effect; inconclusive means small, poorly fitted or top-dose-only effect; inactive means flat fitted curve, though single readings scatter. Potencies of inconclusive entries are doubtful fits and often do not repeat.
# Biological target: Microtubule-associated protein tau (Homo sapiens) (UniProt P10636)
# Experiment: qHTS for Inhibitors of Tau Fibril Formation, Thioflavin T Binding; further: nearly all actives have a fitted effect of over 55% in size
# Settings: recombinant tau K18 P301L, heparin-induced fibrillization, ThT fluorescence; series mostly up to 57.4 µM
# Outline: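 Using a mix of unlabeled (15 uM) and Alexa 594-labeled (0.24 uM) tau K18 P301L, heparin-triggered fibrillization over 6 hr at 37 C was scored by ThT fluorescence.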
# Potency means the concentration at half of the fitted maximal effect; tags describe the fitted curve by direction and shape.
# Chain of UniProt P10636 (P10636 whole entry, looked up): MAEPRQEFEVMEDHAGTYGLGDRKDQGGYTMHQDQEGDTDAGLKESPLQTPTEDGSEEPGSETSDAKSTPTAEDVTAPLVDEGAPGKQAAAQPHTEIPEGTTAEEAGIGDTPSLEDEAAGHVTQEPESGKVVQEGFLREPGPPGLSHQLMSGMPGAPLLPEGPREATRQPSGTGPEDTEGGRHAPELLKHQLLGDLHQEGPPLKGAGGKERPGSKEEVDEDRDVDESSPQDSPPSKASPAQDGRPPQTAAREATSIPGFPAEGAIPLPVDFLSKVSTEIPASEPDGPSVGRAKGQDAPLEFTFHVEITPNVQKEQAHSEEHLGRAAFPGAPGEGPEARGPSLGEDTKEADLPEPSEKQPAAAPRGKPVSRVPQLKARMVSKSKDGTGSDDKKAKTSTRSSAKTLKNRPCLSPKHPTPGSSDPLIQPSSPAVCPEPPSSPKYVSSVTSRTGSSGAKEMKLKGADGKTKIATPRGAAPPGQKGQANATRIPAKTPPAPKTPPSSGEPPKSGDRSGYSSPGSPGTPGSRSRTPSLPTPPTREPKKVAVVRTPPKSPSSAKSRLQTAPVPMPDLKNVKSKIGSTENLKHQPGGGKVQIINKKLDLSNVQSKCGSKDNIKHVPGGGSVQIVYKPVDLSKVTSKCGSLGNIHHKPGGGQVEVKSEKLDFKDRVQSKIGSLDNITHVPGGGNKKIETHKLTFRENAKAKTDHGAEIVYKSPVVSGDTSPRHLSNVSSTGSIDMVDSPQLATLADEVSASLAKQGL
row,Structure (SMILES),Potency
1,Nc1nnnn1/N=C\c1ccc(Cl)c([N+](=O)[O-])c1,"inconclusive: 22.4 µM [inhibitor, partial curve, poor fit]"
2,CCOc1ccccc1CNC(=O)c1cc2c(=O)n(Cc3cccnc3)ccc2nc1C,inactive
3,O=C(NCc1ccccn1)c1ccc2c(=O)n(CCc3ccccc3)c(=O)[nH]c2c1,inactive
4,CCCCCC(=O)Nc1ccc(N2CCN(C(=O)c3ccccc3)CC2)cc1,"inconclusive: 15.8 µM [inhibitor, partial curve]"
5,CCOC(=O)N1CCN(C(=O)CCCn2c(=S)[nH]c3ccsc3c2=O)CC1,"inconclusive: 12.6 µM [inhibitor, partial curve]"
6,CCCCCC(=O)NNC(=S)NC(C)=O,"inconclusive: 39.8 µM [inhibitor, single point]"
7,OC(COCC1COc2ccccc2O1)CN1CCN(c2ccc(F)cc2)CC1 (centres undefined),"inconclusive: 3.55 µM [inhibitor, full curve, poor fit]"
8,O=C(Cn1cnc2cc([N+](=O)[O-])ccc2c1=O)NC(=O)NCc1ccccc1,"inconclusive: 35.5 µM [inhibitor, single point]"
9,O=C(COC(=O)/C=C/C(=O)N1CCN(c2ccccc2)CC1)NC(c1ccccc1)c1ccccc1,"inconclusive: 14.1 µM [inhibitor, partial curve, poor fit]"
10,O=C(CSc1ccc2c(c1)OCCO2)Nc1ccc(Br)cc1,"inconclusive: 39.8 µM [inhibitor, partial curve]"
11,COc1cccc(-c2cc(C(=O)NCCc3ccc(OC)c(OC)c3)no2)c1,"inconclusive: 1 µM [inhibitor, full curve, poor fit]"
12,O=C(Cn1c(SCc2ccc(F)cc2)nc2cccnc21)Nc1ccccc1F,inactive
13,Cc1ccc2nc(COc3cccc(NC(=O)Nc4ccc(C)c(Cl)c4)c3)cc(=O)n2c1,inactive
14,O=C(Nc1nc2c(s1)CCCC2)c1cc2n(n1)C(C(F)(F)F)CC(C1CC1)N2 (centres undefined),"inconclusive: 17.8 µM [inhibitor, partial curve]"
15,CC(/C=C\C=C\c1ccccc1)=N\NC(=O)c1cncc(Br)c1,active: 10 µM
16,O=C(CSc1nnc(CCCN2C(=O)c3cccc4cccc(c34)C2=O)n1-c1ccccc1)NCCCN1CCOCC1,inactive
17,O=C(N/N=C/c1ccc[nH]1)c1ccccc1O,"inconclusive: 25.1 µM [inhibitor, partial curve]"
18,CCCS(=O)(=O)N1CC(=O)N(c2cccc(Cl)c2)C(C)(C(=O)NC2CCCCC2)C1 (centres undefined),inactive
19,CCCCN(C)CC(O)Cn1cc(/C=C/C(=O)c2ccc(Br)cc2)c2ccccc21 (centres undefined),active: 20 µM
20,NC(=O)c1ccc[n+](CC(=O)OCCC23CC4CC(CC(C4)C2)C3)c1,inactive
21,CCN(CC)S(=O)(=O)c1cccc(NC(=O)c2ccccc2Br)c1,inactive
22,CCOC(=O)c1ccc(-c2ccc(C=O)o2)cc1,"inconclusive: 7.94 µM [inhibitor, partial curve, poor fit]"
23,O=Nc1ccc2oc(=O)ccc2c1,"inconclusive: 3.98 µM [inhibitor, full curve]"

row,Structure (SMILES),Potency
1,CCOc1ccc(NC(=O)c2cc3cc4ccc(OC)cc4nc3o2)cc1,"inconclusive: 1.26 µM [inhibitor, full curve]"
2,CCOC(=O)N1CCc2c(sc3c2C(=O)NC(c2ccc(N(C)C)cc2)N3)C1 (centres undefined),active: 0.891 µM
3,O=C(N/N=C/c1ccc([N+](=O)[O-])cc1)c1cc2ccccc2o1,"inconclusive: 2 µM [inhibitor, full curve]"
4,COc1ccccc1[C@@H]1C(c2cccc(C)c2)=NN(c2ccc(Br)cc2)[C@H]1C(=O)N1CCOC1=O,"inconclusive: 39.8 µM [inhibitor, single point]"
5,O=C1Nc2ccccc2Oc2cc([N+](=O)[O-])cc(Oc3ccccc3)c21,"inconclusive: 6.31 µM [inhibitor, partial curve]"
6,Cc1ccc(C)n1-c1ccsc1C(=O)CC#N,"inconclusive: 17.8 µM [inhibitor, partial curve]"
7,CC1(C)CC(=O)C(=CN2CCN(C(=O)c3ccco3)CC2)C(=O)C1,"inconclusive: 15.8 µM [inhibitor, partial curve]"
8,S=C(NCc1ccco1)N1CCN(Cc2ccc(Cl)cc2Cl)CC1,"inconclusive: 44.7 µM [inhibitor, single point]"
9,Cc1ccc(NC(=O)CN2C(=O)S/C(=C\c3cc(C)n(-c4cccc(C(=O)O)c4)c3C)C2=O)cc1,"inconclusive: 25.1 µM [inhibitor, single point]"
10,Cn1c(=O)c2[nH]c(SCc3ccccn3)nc2n(C)c1=S,"inconclusive: 15.8 µM [inhibitor, partial curve, poor fit]"
11,O=[N+]([O-])c1ccc(/C=N/Nc2nc(N3CCCCC3)nc(N3CCCCC3)n2)cc1,"inconclusive: 3.98 µM [inhibitor, partial curve]"
12,O=c1[nH]c(SCc2c(F)cccc2Cl)nc2c1CCC2,inactive
13,O=C(CCNc1ccc(F)cc1)c1cc2ccccc2o1,"inconclusive: 12.6 µM [inhibitor, partial curve]"
14,C=CCc1cccc(OC)c1OCCOCCNCCO,inactive
15,CCCCN(CCCNC(=O)c1cc(Nc2cccc(SC)c2)nc2ccccc12)Cc1ccccc1,"inconclusive: 0.447 µM [inhibitor, full curve]"
16,O=C(c1ccc(Cn2cc(Cl)cn2)o1)N1CCN(Cc2ccc3c(c2)OCO3)CC1,"inconclusive: 22.4 µM [inhibitor, partial curve, poor fit]"
17,CCOc1cccc(C(=O)Nc2ccc(-c3nc4ncccc4o3)cc2C)c1,"inconclusive: 2.51 µM [inhibitor, partial curve]"
18,COc1ccccc1/C=C/C(=O)c1c2c(c(C)[nH]c1=O)CCCC2,"inconclusive: 11.2 µM [inhibitor, partial curve]"
19,O=C(Nc1ccc(C(=O)O)cc1)/C(=C\c1ccc([N+](=O)[O-])cc1)NC(=O)c1ccc(Br)cc1,"inconclusive: 6.31 µM [inhibitor, full curve]"
20,CCOC(=O)c1c(NC(=O)Cc2coc3cc(C)cc(C)c23)sc2c1CCC2,"inconclusive: 15.8 µM [inhibitor, single point]"
21,Cc1ccc(C)c(NS(=O)(=O)c2cc3c(cc2C)n(C)c(=O)c(=O)n3C)c1,inactive
22,O=C1CC(NC23CC4CC(CC(C4)C2)C3)C(=O)N1c1ccc2c(c1)OCO2 (centres undefined),inactive
23,Cc1ccc2c(c1)N(C(=O)CSc1nncn1C)C(C)(C)c1ssc(=S)c1-2,"inconclusive: 15.8 µM [inhibitor, partial curve]"

row,Structure (SMILES),Potency
1,CCN(CC)S(=O)(=O)c1cc([N+](=O)[O-])ccc1NNC(=O)Nc1ccc(F)cc1,inactive
2,O=C(N/N=C/c1ccc([N+](=O)[O-])o1)c1sc2ccccc2c1Cl,active: 3.55 µM
3,N#C/C(=C\c1ccc(/C=C(/C#N)c2nn(CCO)c(N)c2C#N)cc1)c1nn(CCO)c(N)c1C#N,"inconclusive: 0.891 µM [inhibitor, partial curve]"
4,CCOc1ccc(OCC)c(NC(=O)c2cc(S(=O)(=O)N3CCc4ccccc43)cn2C)c1,inactive
5,CCOc1ccc(N2CC(C(=O)Nc3ccc(N4CCOCC4)cc3)CC2=O)cc1 (centres undefined),"inconclusive: 10 µM [inhibitor, partial curve]"
6,O=[N+]([O-])c1cccn2cc(-c3ccc(Br)cc3)nc12,active: 5.01 µM
7,C1CCc2nnnn2CC1,"inconclusive: 0.891 µM [inhibitor, full curve, poor fit]"
8,C/C(=N\NC(=S)Nc1c(C)cccc1C)c1ccc(O)cc1,inactive
9,CCOc1ccc2ncc3c(-c4ccc(C)cc4)nn(-c4cccc(F)c4)c3c2c1,inactive
10,Cc1csc(C(C#N)C(=O)c2ccc(S(=O)(=O)N3CCCC3)cc2)n1 (centres undefined),"inconclusive: 17.8 µM [inhibitor, partial curve, poor fit]"
11,CCOC(=O)C1CCCN(C(=O)CC(C)c2ccccc2)C1 (centres undefined),inactive
12,O=C(NC1CCCc2ccccc21)c1ccc(CNc2c(N3CCOCC3)c(=O)c2=O)cc1 (centres undefined),inactive
13,CCCOc1ccc(C2c3c(-c4ccccc4O)n[nH]c3C(=O)N2CCc2ccccc2)cc1OCC (centres undefined),"inconclusive: 2.82 µM [inhibitor, single point]"
14,COc1ccc(-n2cnc3cc(NCc4cccs4)ccc32)cc1,"inconclusive: 15.8 µM [inhibitor, partial curve]"
15,COc1ccc(-c2noc(CNC(=O)c3ccccc3Br)n2)cc1,"inconclusive: 0.251 µM [inhibitor, full curve, poor fit]"
16,CC(C)C(NC(=O)c1ccc(C(C)(C)C)cc1)C(=O)Nc1cccc(S(N)(=O)=O)c1 (centres undefined),inactive
17,Cc1ccc(S(=O)(=O)N2CCN(S(=O)(=O)N3CCCCC3)CC2)cc1,inactive
18,O=[N+]([O-])c1ccccc1-c1ccc(C(=S)N2CCCC2)o1,active: 15.8 µM
19,COc1ccc(C(=O)c2oc3ccccc3c2NC(=O)c2cc(=O)c3ccc(C)cc3o2)cc1Cl,"inconclusive: 44.7 µM [inhibitor, single point]"
20,CC(C)(C)NC(=O)C(c1cccnc1)N(C(=O)c1ccc(Cl)nc1)C1CCCC1 (centres undefined),active: 12.6 µM
21,Cc1csc(NC(=O)CSc2nnc(-c3ccc(Cl)cc3)n2N)n1,"inconclusive: 2.51 µM [inhibitor, partial curve]"
22,CCN(CC)c1ccc(/C=N/N2CCN(Cc3ccc(C)cc3)CC2)c(O)c1,"inconclusive: 14.1 µM [inhibitor, partial curve]"
23,O=[N+]([O-])c1ccc(COc2cccc(CNc3ccc(F)cc3)c2)cc1,"inconclusive: 4.47 µM [inhibitor, single point]"
